# Laboratory results: paper PMC4336329 (PLoS ONE, 2015)
# In all, about 310,000 compounds went through this assay and about 2,200 (0.71%) showed an effect of 50% or more. Effects have a minus sign here. The list shows a part of the results.
# Target: human ether-à-go-go-related gene (hERG) potassium channel (human, UniProt Q12809)
# Test: primary screen, population patch clamp on CHO cells stably expressing hERG
# human ether-à-go-go-related gene (hERG) potassium channel, sequence (Q12809 whole entry, looked up): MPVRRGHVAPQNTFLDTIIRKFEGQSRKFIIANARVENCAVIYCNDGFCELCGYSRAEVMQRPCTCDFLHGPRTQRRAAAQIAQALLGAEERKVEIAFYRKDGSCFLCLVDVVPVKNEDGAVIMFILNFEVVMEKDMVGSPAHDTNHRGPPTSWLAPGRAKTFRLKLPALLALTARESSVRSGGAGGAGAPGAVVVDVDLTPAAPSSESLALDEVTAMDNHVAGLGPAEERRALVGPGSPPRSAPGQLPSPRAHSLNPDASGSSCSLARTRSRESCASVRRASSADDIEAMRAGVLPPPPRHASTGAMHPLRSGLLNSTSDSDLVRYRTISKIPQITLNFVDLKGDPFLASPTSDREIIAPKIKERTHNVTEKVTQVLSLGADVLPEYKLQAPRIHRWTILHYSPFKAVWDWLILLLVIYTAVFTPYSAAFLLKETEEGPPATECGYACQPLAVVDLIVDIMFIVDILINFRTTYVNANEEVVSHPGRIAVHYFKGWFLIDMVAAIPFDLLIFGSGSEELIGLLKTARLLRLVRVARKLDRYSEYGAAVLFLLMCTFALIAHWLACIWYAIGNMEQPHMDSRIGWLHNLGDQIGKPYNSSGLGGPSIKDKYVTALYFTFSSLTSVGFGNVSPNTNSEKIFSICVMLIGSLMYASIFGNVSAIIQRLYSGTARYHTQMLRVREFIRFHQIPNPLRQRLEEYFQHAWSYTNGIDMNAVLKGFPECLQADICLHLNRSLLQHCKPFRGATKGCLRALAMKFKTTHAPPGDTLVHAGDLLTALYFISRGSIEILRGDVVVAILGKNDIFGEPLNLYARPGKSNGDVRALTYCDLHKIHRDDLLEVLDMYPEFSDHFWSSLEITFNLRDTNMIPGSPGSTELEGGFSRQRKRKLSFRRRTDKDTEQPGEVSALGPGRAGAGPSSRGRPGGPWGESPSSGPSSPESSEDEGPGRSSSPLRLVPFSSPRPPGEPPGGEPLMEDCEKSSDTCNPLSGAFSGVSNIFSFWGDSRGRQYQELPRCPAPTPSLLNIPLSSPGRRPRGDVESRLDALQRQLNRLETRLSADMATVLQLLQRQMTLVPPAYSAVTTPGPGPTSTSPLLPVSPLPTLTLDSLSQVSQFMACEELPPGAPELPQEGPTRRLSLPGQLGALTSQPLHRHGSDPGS
row,SMILES,"hERG current change (%, negative = inhibition) at 1uM"
1,CC(NC(=O)CCn1c(=S)[nH]c2ccsc2c1=O)c1ccccc1 (centres unmarked),5.54%
2,O=c1[nH]cc(C(F)(F)F)cc1NS(=O)(=O)c1ccc([N+](=O)[O-])cc1,-5.38%
3,CCOc1ccccc1N1CC(C(=O)N2CCOCC2)CC1=O (centres unmarked),10.7%
4,COc1ccc(/C=C/CN2CCC(n3nccc3NC(=O)C3CCCC3)CC2)cc1,-92.1%
5,Cn1c(=O)[nH]c(=O)c2c1nc(N1CCCCCC1)n2CCOc1ccccc1,1.03%
6,CCn1nnc(NC(=O)c2c(OC)cccc2OC)n1,15%
7,CSC1=NCCN1C(=O)c1ccc(S(=O)(=O)N2CCCCC2)cc1,11.2%
8,C=CCOc1cccc(/C=N/NC(=O)CN(c2cc(Cl)ccc2OC)S(=O)(=O)c2ccc(C)c([N+](=O)[O-])c2)c1,18.4%
9,Cc1ccc(Nc2cc(=O)[nH]c(=O)[nH]2)cc1C,6.08%
10,N#C/C(=C\c1cn(CCOc2ccccc2)c2ccccc12)C(=O)NCc1ccco1,4.03%
11,Cc1cccc(NC(=O)/C(C#N)=C/c2ccc(Sc3ccccc3)o2)c1C,8.67%
12,CCNC(=O)N1CCCC(C(=O)c2ccc3cc(OC)ccc3c2)C1 (centres unmarked),4.69%
13,CCOc1ccc(C(CCc2ccccc2)NC(=O)c2ccccc2F)cc1OCC (centres unmarked),11.8%
14,CCOC(=O)C1C(=O)C=C(N2CCOCC2)CC1c1cccc(OC)c1 (centres unmarked),18.3%
15,c1ccc(C(c2ccccc2)N2CCN(C(c3ccccn3)c3nnnn3C3CCCC3)CC2)cc1 (centres unmarked),8.57%
16,CCCCSc1n[nH]c(N)n1,14.6%
17,COc1cc2ccccc2cc1C(=O)N1CCCCC1,1.3%
18,Cc1cc(=O)cc(C)n1-c1ccc(F)cc1F,7.28%
19,Cc1ccc(/C=C2\SC(=S)N(CCCC(=O)Nc3ccc(O)cc3)C2=O)cc1,8.87%
20,Cc1ccc(-c2cc(C(F)(F)F)c(C#N)c(SCCC#N)n2)o1,5.56%
21,COc1ccc(Nc2nc(N)nc(CSC(=S)N3CCOCC3)n2)cc1,8.62%
22,CC(=O)Oc1cccc(NC(=O)c2ccc3c(c2)C(=O)N(CC(C)C)C3=O)c1,7.53%

row,SMILES,"hERG current change (%, negative = inhibition) at 1uM"
1,CN(Cc1cnn(C)c1)C(=O)c1cc(COc2c(F)cccc2F)on1,14.7%
2,CCOC(=S)SCC(=O)Nc1nc(C)c(C)s1,2.1%
3,O=C(Cc1ccc(Cl)cc1)Nc1ccc(N2CCCC2)cc1,8.92%
4,OCCCNc1ncnc2c1[nH]c1ccccc12,14.4%
5,CCCCCNC(=O)c1cccc(S(=O)(=O)N2CC3(C)CC2CC(C)(C)C3)c1 (centres unmarked),10.6%
6,CC1(C)CC(=O)C(C=NCCc2ccc(O)cc2)=C(O)C1,10.2%
7,Cc1cc(=O)oc2cc(OCC(=O)N3CC[C@@]4(O)CCCC[C@H]4C3)ccc12,9.62%
8,CCOc1ccc(N=C2SCCCN2C(=O)c2c(CC)noc2C)cc1,8.16%
9,Cc1oc(S(=O)(=O)N2CCCCC2)cc1NC(=O)Nc1ccc(Cl)cc1,1.55%
10,COc1ccc(NC(=O)CCN2C(=O)/C(=C/c3ccc4c(c3)OCO4)SC2=S)cc1,5.41%
11,COc1ccccc1C(=O)Nc1ccnn1C1CCN(C(=O)c2cnsn2)CC1,-23.8%
12,CC(=O)c1c(C)[nH]c(C(=O)OCC(=O)NCCC(C)C)c1C,1.69%
13,CCN(CC)S(=O)(=O)c1ccc(-c2nnc(SCC(=O)N3c4ccccc4CC3C)o2)cc1 (centres unmarked),8.5%
14,Cc1ccc(/C=N/NC(=O)C2COc3ccccc3O2)s1 (centres unmarked),18%
15,Cc1cc(-c2nnc(CCC(=O)NCC(C)c3ccccc3)o2)no1 (centres unmarked),14.2%
16,CCN(CC)C(=O)c1sc(NC(=O)Cc2cccs2)c(C#N)c1C,6%
17,COCCCNC(=O)C1CC(=O)N(c2ccc(C)cc2)C1 (centres unmarked),23.7%
18,N/C(Cc1ccc(Cl)cc1)=N\OC(=O)c1ccccc1,2.79%
19,CC1CCCC(C)N1CCCNC(=O)CN1C(=O)c2cccnc2Oc2ccc(Cl)cc21 (centres unmarked),6.15%
20,Cc1ccccc1C(=O)NNC(=O)c1cc(N)cc([N+](=O)[O-])c1,12.5%
21,COc1ccc(/C=C(/NC(=O)c2cccs2)C(=O)NC(C)(C)C)cc1OC,11.7%
22,COc1cccc(-n2cnc3sc(C)c(C)c3c2=O)c1,-3.5%
